Results as given in PubChem BioAssay AID1347120 (National Center for Advancing Translational Sciences (NCATS), 2019).
About 930 (0.24%) of roughly 390,000 compounds were called active. Inconclusive results, whose numbers are uncertain, are shown with a selection of clear calls. Calls follow the shape of the dose curve; as a rule, active = well fitted activation curve with a large enough effect; inconclusive = small, poorly fitted or top-dose-only effect; inactive = no such curve, though single readings can be large or run the other way. Potencies of inconclusive entries are doubtful fits and often do not repeat.

Experiment: qHTS for Suppressors of FUS Proteinopathy: Primary screen using FUS-linked yeast assay; also: nearly all actives have a fitted effect of over 55% in size
Details: S. cerevisiae FUS-expressing, OD600, 24 h; Potency: growth rescue; series mostly up to 76.6 µM
Method in brief: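 FUS-expressing yeast, raffinose-pregrown, induced in 2% galactose minimal medium at OD 0.005; compounds in a dilution series, 24hr at 30C. Growth restoration read as absorbance at 600 nm. CP55940 positive control, DMSO negative.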
Potency is read from the fitted curve at half-maximal effect; tags tell the direction and shape of the fitted curve.

Which Potency does the source give for `O=C(COC(=O)c1ccc(NS(=O)(=O)c2cccs2)cc1)NCc1ccco1` here?
Its Potency is inconclusive: 15.8 µM [activator, partial curve, poor fit].

With `Cc1ccc2oc3c(SCc4nc5ccccc5[nH]4)nc(C)nc3c2c1` as the compound, how does the Potency read?
The Potency was inconclusive: 35.5 µM [activator, single point].

Which Potency does the source give for `COc1ccc(C2=NOC3(CC(=O)N(c4ccc(F)cc4)C3=O)C2)c(OC)c1` (configuration not stated) here?
The Potency was inconclusive: 8.91 µM [activator, partial curve, poor fit].

Which Potency does the source give for `c1ccc(SCc2nc3ccccc3[nH]2)cc1` here?
Its Potency is inconclusive: 0.794 µM [activator, partial curve, poor fit].

Which Potency does the source give for `CCN1C(=O)[C@H]2[C@@H](c3ccc(-c4cccc(Cl)c4)cc3)N[C@@](Cc3ccccc3)(C(=O)OC)[C@H]2C1=O` here?
The Potency was active: 14.1 µM.

With `CN(CCc1ccccc1)C(=O)c1ccc(NC(=O)Cc2ccc(NC(=O)C3CCCN(C(=O)CCc4ccccc4)C3)cc2)cc1` (configuration not stated) as the compound, how does the Potency read?
The Potency was inconclusive: 22.4 µM [activator, single point].

For `Cc1ccc(C(=O)CCC(=O)OCC(=O)N2CCN(S(=O)(=O)c3ccc(C)cc3C)CC2)cc1`, which Potency is on record?
The Potency was inconclusive: 20 µM [activator, single point].

For `CCN(CCCNC(=O)c1cc2cc3cc(C)ccc3nc2s1)c1cccc(C)c1`, which Potency is on record?
The Potency was active: 31.6 µM.

For `COc1ccc(OC)c(C(c2nnnn2C2CCCC2)N2CCN(c3ccccc3F)CC2)c1` (configuration not stated), which Potency is on record?
The Potency was “inactive”.

Which Potency does the source give for `CC(C)(C)C(=O)Nc1ccc2nc(SCC(=O)N3CCCC3)sc2c1` here?
Its Potency is “inactive”.

For `COc1ccc(C(=O)CSc2nnc(-c3n[nH]c4c3CCC4)n2N)cc1OC`, which Potency is on record?
Its Potency is “inactive”.

For `CCN(CC)S(=O)(=O)c1ccc(N2CCCCC2)c(NC(=O)C2CCN(C(=O)c3ccc(F)cc3)CC2)c1`, which Potency is on record?
The Potency was inconclusive: 50.1 µM [activator, partial curve, poor fit].

Which Potency does the source give for `O=C(Nc1ccc(NC(=O)c2cccs2)cc1)c1ccc(Br)cc1` here?
Its Potency is inconclusive: 15.8 µM [activator, partial curve, poor fit].

For `Cc1ccc(S(=O)(=O)N2CCN(C(=O)COC(=O)Cc3ccc(Cl)cc3)CC2)c(C)c1`, which Potency is on record?
Its Potency is inconclusive: 17.8 µM [activator, partial curve].

Which Potency does the source give for `CC(O)(c1cccnc1)c1nc(-c2ccc3ccccc3c2)cs1` (configuration not stated) here?
Its Potency is inconclusive: 39.8 µM [activator, single point].

With `O=C(OCc1ccccc1Cl)c1ccc(-c2nnn(Cc3ccccc3)n2)cc1` as the compound, how does the Potency read?
The Potency was “inactive”.

Which Potency does the source give for `COc1ccc(CN(C)CC(=O)Nc2sc3c(c2C#N)CCC3)c(OC)c1` here?
Its Potency is inconclusive: 2.82 µM [activator, full curve].
